From PMC4336329 (PLoS ONE, 2015)
The campaign covered roughly 310,000 compounds. About 14,000 (4.5%) showed an effect of 50% or more. Effects have a minus sign here. This is one part of the list.

biological target: human ether-à-go-go-related gene (hERG) potassium channel (human, UniProt Q12809); assay: primary screen, population patch clamp on CHO cells stably expressing hERG
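Also: peak tail current of the secondary pulse compared with the same well before compound.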

human ether-à-go-go-related gene (hERG) potassium channel, sequence (Q12809 whole entry, looked up): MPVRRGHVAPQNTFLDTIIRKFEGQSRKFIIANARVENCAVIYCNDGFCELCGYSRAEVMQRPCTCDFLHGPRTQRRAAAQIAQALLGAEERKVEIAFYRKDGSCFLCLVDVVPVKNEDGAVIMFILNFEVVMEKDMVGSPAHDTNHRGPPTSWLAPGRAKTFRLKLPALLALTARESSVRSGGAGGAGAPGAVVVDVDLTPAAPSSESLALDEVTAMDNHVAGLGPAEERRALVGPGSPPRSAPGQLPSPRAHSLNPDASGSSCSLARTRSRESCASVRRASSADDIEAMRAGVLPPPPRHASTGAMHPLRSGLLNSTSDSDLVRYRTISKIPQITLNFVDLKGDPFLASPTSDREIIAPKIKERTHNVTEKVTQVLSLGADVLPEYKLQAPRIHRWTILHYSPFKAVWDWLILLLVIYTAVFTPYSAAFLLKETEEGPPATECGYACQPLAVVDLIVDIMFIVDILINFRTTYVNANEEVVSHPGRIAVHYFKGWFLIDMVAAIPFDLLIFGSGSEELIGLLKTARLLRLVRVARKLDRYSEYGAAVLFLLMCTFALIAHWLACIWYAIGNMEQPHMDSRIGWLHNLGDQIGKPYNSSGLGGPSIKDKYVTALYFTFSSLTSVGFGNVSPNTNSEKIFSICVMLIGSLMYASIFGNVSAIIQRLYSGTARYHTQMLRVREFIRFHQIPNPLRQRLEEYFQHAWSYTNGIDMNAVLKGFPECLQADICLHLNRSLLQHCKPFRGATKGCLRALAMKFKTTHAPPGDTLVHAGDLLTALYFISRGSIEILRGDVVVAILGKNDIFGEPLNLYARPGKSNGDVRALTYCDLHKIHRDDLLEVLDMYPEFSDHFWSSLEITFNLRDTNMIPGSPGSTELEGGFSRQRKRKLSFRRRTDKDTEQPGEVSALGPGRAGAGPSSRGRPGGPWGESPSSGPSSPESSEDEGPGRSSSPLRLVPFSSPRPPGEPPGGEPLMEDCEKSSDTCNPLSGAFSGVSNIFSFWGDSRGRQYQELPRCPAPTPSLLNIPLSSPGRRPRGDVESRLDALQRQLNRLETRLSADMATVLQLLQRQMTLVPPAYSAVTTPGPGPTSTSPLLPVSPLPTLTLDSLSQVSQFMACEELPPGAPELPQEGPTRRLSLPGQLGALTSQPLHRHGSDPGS

In order of rising “hERG current change (%, negative = inhibition) at 10uM” value:
1. Cc1ccc(C(=O)N/C(=C/c2ccc(-c3ccc([N+](=O)[O-])cc3)o2)C(=O)NCCCN(C)C)cc1  -73.7%
2. CC(=O)N(C(C)=O)N1C(=O)C2C3c4ccccc4C(c4ccccc43)C2C1=O (centres unmarked)  -47.6%
3. CCOC(=O)c1[nH]ncc1[C@@H]1C[C@H]2CN(Cc3cccc(Cl)c3)C(=O)[C@]23CCCN13  -27.4%
4. O=C(CN1C(=O)NC2(CCOc3ccccc32)C1=O)c1ccc(F)cc1 (centres unmarked)  -23.5%
5. CCOc1ccc(NC(=O)CN(C)C(=O)CSCc2ccc(C)cc2)cc1OCC  -20.1%
6. Cc1ccn2c(NC3CCCC3)c(-c3cccs3)nc2c1.Cl  -15.4%
7. Cc1cc(C)c(C)c(S(=O)(=O)N2CCN(C(=O)c3ccccc3OCc3c(C)noc3C)CC2)c1C  -12.4%
8. Cc1cc(C)c(C)c(S(=O)(=O)N2CCC(C(=O)N3CCCCCCC3)CC2)c1C  -11.8%
9. COc1cc(-c2[nH]nc3c2C(c2ccoc2)C(C#N)=C(N)O3)cc(OC)c1OC (centres unmarked)  -11.6%
10. COCCSc1ccccc1C(=O)N1CCN(Cc2ccc3c(c2)OCO3)CC1  0.984%
11. Cc1cc(NC(=O)c2ccccc2Cl)c(C(C)C)cc1O  3.9%
12. COc1ccc(-n2nnnc2SCC(=O)Nc2cccc(C)n2)cc1OC  4.02%
13. CCC(C)(C)c1ccc(Oc2ccc(NC(=O)COC(=O)C3=COCCO3)cc2)cc1  4.67%
14. Cl.NN=C(N)N  5.42%
15. Cc1nc2ccc(-n3ccc(=O)cc3)cc2s1  8.37%
16. COc1ccccc1-n1cnc2sc(-c3ccccc3)cc2c1=O  10.4%
17. CCN(C(=O)COC(=O)c1cc(S(=O)(=O)N2CCOCC2)ccc1F)C1CCS(=O)(=O)C1 (centres unmarked)  10.9%
18. COc1ccc(-c2cc(C(F)(F)F)c(C#N)c(SCC(=O)O)n2)cc1OC  16%
19. O=C(Nc1ccc(Oc2ccc(Cl)cc2)cc1)c1ncn[nH]1  16.4%
20. COc1ccc(C(N)=O)cc1NC(=O)c1cccc(F)c1  18.9%
21. O=C(O)CSc1c2c(nc3cc(C(=O)Nc4cccc(C(F)(F)F)c4)ccc13)CCCC2  22.1%
22. COc1cc(/C=C(\C#N)C(=O)N2CCOCC2)ccc1OCc1ccccc1  22.9%
23. COc1ccc(-n2c(C)nnc2SCC(=O)Nc2ccccc2F)cc1  24.8%
